Results from PubChem BioAssay AID504332 (National Center for Advancing Translational Sciences (NCATS), 2011).
Among all 350,000 compounds or so, about 31,000 (8.9%) were called active. The shares of active, inactive and inconclusive entries below differ from those in the screen. Calls follow the shape of the dose curve; as a rule, active = well fitted inhibition curve with a large enough effect; inconclusive = small, poorly fitted or top-dose-only effect; inactive = no such curve, though single readings can be large or run the other way. Where the call is inconclusive, the potency comes from a doubtful curve fit.
% is scaled to controls: 0 for no effect and ±100 for the full control effect; potency is read from the fitted curve at half-maximal effect; tags tell the direction and shape of the fitted curve.
Also: nearly all actives have a fitted effect of over 75% in size.

What follows are compounds tested against Histone-lysine N-methyltransferase EHMT2 (Homo sapiens) (UniProt Q96KQ7) (assay: qHTS Assay for Inhibitors of Histone Lysine Methyltransferase G9a). Settings: G9a H3K9 monomethylation, AlphaScreen, 2 h; activity, negative = inhibition: at 59 µM (top of the series) unless noted.
Sequence of UniProt Q96KQ7 (Q96KQ7 whole entry, looked up): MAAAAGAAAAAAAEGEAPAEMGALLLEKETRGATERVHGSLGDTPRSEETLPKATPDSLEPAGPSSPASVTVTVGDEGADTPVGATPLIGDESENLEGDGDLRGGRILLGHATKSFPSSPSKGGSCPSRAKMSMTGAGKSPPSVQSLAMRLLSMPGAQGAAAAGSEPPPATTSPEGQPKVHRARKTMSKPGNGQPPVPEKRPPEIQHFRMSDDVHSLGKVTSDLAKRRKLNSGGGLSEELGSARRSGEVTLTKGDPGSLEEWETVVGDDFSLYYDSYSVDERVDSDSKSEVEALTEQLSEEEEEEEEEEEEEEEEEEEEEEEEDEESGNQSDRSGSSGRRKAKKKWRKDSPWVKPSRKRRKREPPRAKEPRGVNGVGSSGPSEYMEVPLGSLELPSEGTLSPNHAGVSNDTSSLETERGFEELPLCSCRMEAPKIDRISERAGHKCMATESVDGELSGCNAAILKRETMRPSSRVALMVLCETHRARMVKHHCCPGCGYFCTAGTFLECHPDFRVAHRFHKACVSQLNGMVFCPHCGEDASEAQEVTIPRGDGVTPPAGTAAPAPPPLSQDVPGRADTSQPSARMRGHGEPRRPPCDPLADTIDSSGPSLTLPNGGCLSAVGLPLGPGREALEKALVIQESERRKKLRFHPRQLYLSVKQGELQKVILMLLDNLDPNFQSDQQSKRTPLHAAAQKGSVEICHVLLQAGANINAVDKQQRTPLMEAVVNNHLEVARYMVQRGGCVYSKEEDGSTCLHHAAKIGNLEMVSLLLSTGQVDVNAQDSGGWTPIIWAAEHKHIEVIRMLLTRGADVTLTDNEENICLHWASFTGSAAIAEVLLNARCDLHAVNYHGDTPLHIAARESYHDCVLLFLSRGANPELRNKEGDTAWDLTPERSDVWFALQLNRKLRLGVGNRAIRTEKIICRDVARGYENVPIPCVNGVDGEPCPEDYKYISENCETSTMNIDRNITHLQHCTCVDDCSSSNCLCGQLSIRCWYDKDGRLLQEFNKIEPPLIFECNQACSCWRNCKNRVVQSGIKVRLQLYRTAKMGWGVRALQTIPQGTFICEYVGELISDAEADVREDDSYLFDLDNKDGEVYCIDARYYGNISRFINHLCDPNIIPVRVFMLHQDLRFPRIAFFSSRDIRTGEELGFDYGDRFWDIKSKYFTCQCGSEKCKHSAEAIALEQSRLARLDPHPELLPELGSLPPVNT
How it was run: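 Compounds were preincubated with 20 nM G9a for 15 min, after which biotinylated H3K9 peptide (500 nM) and SAM (20 uM) started a 2 h room-temperature reaction. Monomethylated product was quantified by antibody-based AlphaScreen chemiluminescence.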
With COc1ccc(CN(C)C(=O)C2CC(=O)N(c3ccc4c(c3)OCCO4)C2)c(OC)c1 (stereo unspecified) the Potency was inconclusive: 12.6 µM [inhibitor, partial curve, poor fit].
With CN1CCN(c2ccc(NC(=S)NC(=O)/C=C/c3ccco3)cc2)CC1 the Potency was active: 44.7 µM.
With CCCc1cc(C(=O)OC)c(NC(=O)OCC)s1 the Potency was inconclusive: 39.8 µM [inhibitor, single point].
With COc1cc(C)c(NC(=S)Nc2ccc(C)c(Cl)c2)cc1OC the Potency was inconclusive: 39.8 µM [inhibitor, single point].
Cc1ccc(S(=O)(=O)N(C)C)cc1NC(=O)C(C)OC(=O)c1ccc2ccccc2n1 (stereo unspecified) was tested, and the activity, negative = inhibition was inactive: 10.5% [at 2.33 µM].
Clc1ccc(OCc2nn[nH]n2)cc1 was tested, and the Potency was inconclusive: 89.1 µM [inhibitor, single point].
In the case of CCOc1ccc(-n2c(COc3ccc(C)cc3)nnc2SCC(N)=O)cc1, the “activity, negative = inhibition” value is reported as inactive: -8.03%.
In the case of CC(OC(=O)CNC(=O)c1ccc(Cl)c([N+](=O)[O-])c1)C(=O)NCc1ccco1 (stereo unspecified), the Potency is reported as inconclusive: 79.4 µM [inhibitor, single point].
In the case of NC(=O)C1CCN(Cc2nc3cc(C(F)(F)F)ccc3c(=O)[nH]2)CC1, the Potency is reported as active: 14.1 µM.
For Cc1cc(OC(C)C(=O)Nc2sc3c(c2C(N)=O)CCCC3)ccc1Cl (stereo unspecified), the “activity, negative = inhibition” value was inactive: 4.83%.
In the case of CC(=O)N1[C@H](C)C=C[C@]1(Cc1ccccc1)C(=O)NCCc1c[nH]c2ccccc12, the Potency is reported as inconclusive: 89.1 µM [inhibitor, single point].
In the case of COc1ccc(S(=O)(=O)Nc2cc(S(=O)(=O)c3ccccc3)c(O)c(C)c2C)cc1, the “activity, negative = inhibition” value is reported as inactive: -42.9%.
Cc1cccc(NS(=O)(=O)c2ccc(C)c(C(=O)N(C)C3CCN(C)CC3)c2)c1 was tested, and the Potency was inconclusive: 50.1 µM [inhibitor, partial curve, poor fit].
For COc1ccc(NC(=O)c2sccc2SCC#N)cc1, the Potency was active: 7.94 µM.
For CCOC(=O)C1=C(C)NC(C)=C(C(=O)OCC)C1C(=O)OCC(=O)N(C)C1CCS(=O)(=O)C1 (stereo unspecified), the “activity, negative = inhibition” value was inactive: 14% [at 102 µM].
With Cc1ccc(C(C)C)c(OC(C)C(=O)NCC2(N(C)C)CCCCC2)c1 (stereo unspecified) the Potency was inconclusive: 39.8 µM [inhibitor, partial curve, poor fit].
O=c1c2cc(Br)ccc2nc(-c2cccc(Cl)c2)n1O was tested, and the “activity, negative = inhibition” value was inactive: -6.02% [at 102 µM].
Cc1cc(C)c2c(-n3cccc3)c(C(=O)NNS(=O)(=O)c3ccc(Cl)cc3)sc2n1 was tested, and the Potency was inconclusive: 70.8 µM [inhibitor, single point].
In the case of COc1ccc(-n2cnnc2SC(C)c2nc3sc(C)c(C)c3c(=O)[nH]2)cc1 (stereo unspecified), the Potency is reported as inconclusive: 39.8 µM [inhibitor, single point].
With N#Cc1ccc(Oc2ccc(-c3cnc4ccccc4n3)cc2)cc1C#N the Potency was inconclusive: 22.4 µM [inhibitor, single point].
Cc1ccc(-c2nnc(SCC(=O)NCC3CCCO3)nc2-c2ccc(C)cc2)cc1 (stereo unspecified) was tested, and the Potency was inconclusive: 44.7 µM [inhibitor, partial curve, poor fit].
O=C(CNc1ccc2c(c1)OCO2)N/N=C\c1ccccc1Cl was tested, and the Potency was inconclusive: 12.6 µM [inhibitor, partial curve, poor fit].
For C=CCc1ccc(OCCOCCOc2ccc(C)cc2[N+](=O)[O-])c(OC)c1, the “activity, negative = inhibition” value was inactive: 35.4% [at 102 µM].
For O=C(N/C(=C/c1ccc(Cl)cc1)C(=O)N1CCCC1)c1ccccc1, the activity, negative = inhibition was inactive: -3.56% [at 12.7 µM].
With O=C(N/N=C/c1ccc(F)cc1)c1sccc1OCc1ccc(F)cc1 the activity, negative = inhibition was inconclusive: -66.6% [inhibitor].
For CCOC(=O)/C=C(C)\C=C\c1c[nH]c2ccccc12, the Potency was inconclusive: 56.2 µM [inhibitor, single point].
For CCCOc1ccc(N2C(=O)CC(N3CCN(c4ccccc4OC)CC3)C2=O)cc1 (stereo unspecified), the Potency was active: 44.7 µM.
In the case of CC(=O)n1c(Cl)c(NC(=O)CCl)c2ccccc21, the Potency is reported as inconclusive: 89.1 µM [inhibitor, single point].
With Cc1cccc(N2CCN(C(=O)CCC(=O)N3CCOc4ccc(Cl)cc43)CC2C)c1 (stereo unspecified) the Potency was inconclusive: 89.1 µM [inhibitor, single point].
For CCC1CCCCN1C(=O)CSc1nc2c([nH]c3ccccc32)c(=O)n1-c1ccc(OC)cc1 (stereo unspecified), the “activity, negative = inhibition” value was inactive: 5.93%.
For CCCCc1[nH]c(=O)c(C#N)c2c1CSC(C)(C)C2, the Potency was inconclusive: 89.1 µM [inhibitor, single point].
With COC(=O)c1ccccc1NC(=O)c1cc(C2CC2)on1 the “activity, negative = inhibition” value was inactive: 4.44%.
CCN(C(=O)COC(=O)c1cccc(S(=O)(=O)NCc2ccccc2)c1)c1ccccc1 was tested, and the Potency was inconclusive: 50.1 µM [inhibitor, partial curve].
O=C(CCS(=O)(=O)c1ccccc1)N(CCCN1CCOCC1)c1nc2ccc(F)cc2s1 was tested, and the Potency was active: 22.4 µM.
For Cc1cc(C(=O)O)ccc1N/C=C1\CCCC(C)C1=O (stereo unspecified), the Potency was inconclusive: 3.55 µM [inhibitor, single point].
With Cc1cc(C)c(C(=O)C(C)OC(=O)c2ccccn2)cc1C (stereo unspecified) the Potency was inconclusive: 8.91 µM [inhibitor, full curve, poor fit].
In the case of CCSc1nnc(NC(=O)CSc2nc(C)cc(C)n2)s1, the “activity, negative = inhibition” value is reported as inactive: -1.04%.
In the case of O=C(c1ccc(S(=O)(=O)Cc2cc(F)ccc2F)c([N+](=O)[O-])c1)N1CCCC1, the Potency is reported as inconclusive: 79.4 µM [inhibitor, single point].
In the case of CCOc1ccccc1C(=O)NN1CCOCC1, the Potency is reported as inconclusive: 89.1 µM [inhibitor, single point].
With Cc1ccc2cc(C#N)c(NCCCNC(=O)C3CCCO3)nc2c1 (stereo unspecified) the activity, negative = inhibition was inconclusive: -72.3% [inhibitor].
Cn1c(=O)n(CCCO)c(=O)c2c1nc1n2CCCN1Cc1ccccc1 was tested, and the Potency was inconclusive: 31.6 µM [inhibitor, full curve].
With COc1ccc(C(=O)N/C(=C\c2ccco2)C(=O)OCc2ccco2)cc1 the Potency was inconclusive: 79.4 µM [inhibitor, single point].
C[C@@H](C(=O)Nc1ccc2ccccc2c1)[C@@H]1C[C@@]1(C)[C@@H](NC(=O)c1ccccc1)c1ccccc1 was tested, and the Potency was inconclusive: 79.4 µM [inhibitor, single point].
Cc1ccccc1N=C/C=C1\N(C)c2ccccc2C1(C)C was tested, and the Potency was inconclusive: 1.78 µM [inhibitor, full curve, poor fit].
For CCOC(=O)c1c(C)nn(-c2ccc(NC(=O)/C=C/C(=O)O)cc2)c1C, the activity, negative = inhibition was inconclusive: -65.8% [inhibitor].
In the case of Cc1ccc(NC(=O)CN(C)C(=O)COc2cccc3cccnc23)cc1, the Potency is reported as inconclusive: 39.8 µM [inhibitor, single point].
N/C(Cc1ccc([N+](=O)[O-])cc1)=N\OC(=O)c1ccc(Br)cc1 was tested, and the Potency was inconclusive: 39.8 µM [inhibitor, single point].
Cc1cc(=O)oc2c3c(cc(OCC(=O)N4CCC(C(=O)O)CC4)c12)OC(C)(C)CC3 was tested, and the activity, negative = inhibition was inactive: -0.2% [at 12.7 µM].
CCn1cc2nc(SCC(=O)Nc3ccccc3C(F)(F)F)n(Cc3ccc(C)cc3)c(=O)c2n1 was tested, and the Potency was inconclusive: 35.5 µM [inhibitor, partial curve, poor fit].
Cc1ccc(NC(=O)c2ccc3ncsc3c2)cc1S(=O)(=O)N(C)C was tested, and the Potency was inconclusive: 2 µM [inhibitor, partial curve, poor fit].
In the case of Cc1cccc(NC(=O)CSc2nnc(NC(=O)CN3CCCCC3)s2)c1, the “activity, negative = inhibition” value is reported as inactive: 16.2%.
With CCn1cc(C(=O)N2CCN(c3cccc(C)c3C)CC2)c2cc(OC)c(OC)cc2c1=O the “activity, negative = inhibition” value was inactive: -28.7%.
In the case of O=C(NCC1(N2CCCCC2)CCCCC1)c1ccc(NS(=O)(=O)c2ccc(F)cc2)cc1, the Potency is reported as inconclusive: 44.7 µM [inhibitor, partial curve, poor fit].
In the case of CCOC(=O)C1(Cc2ccc(OC)cc2)CCN(C(=O)Cn2cnnn2)CC1, the Potency is reported as inconclusive: 10 µM [inhibitor, partial curve, poor fit].
For Cc1cc(C)nc(/N=C/c2c(O)n(C)c(=O)n(C)c2=O)n1, the “activity, negative = inhibition” value was inactive: -27.3%.
In the case of O=C(CCn1c2c(c3ccccc31)CCCC2)NNC(=O)c1ccc(Cl)c([N+](=O)[O-])c1, the Potency is reported as inconclusive: 56.2 µM [inhibitor, single point].
O=C1CCc2cc(S(=O)(=O)NC3CCCCC3)ccc2N1 was tested, and the Potency was inconclusive: 3.98 µM [inhibitor, single point].
With CC1Cc2ccccc2N1S(=O)(=O)c1nnc(NC(=O)c2ccccc2)s1 (stereo unspecified) the Potency was inconclusive: 3.55 µM [inhibitor, partial curve, poor fit].
For CCSc1nnc(NC(=O)CSc2sc3c(O)cc(=O)[nH]c3c2C#N)s1, the Potency was inconclusive: 20 µM [inhibitor, partial curve, poor fit].
For S=c1[nH]nc(-c2cc(-c3ccccn3)nc3ccccc23)o1, the Potency was inconclusive: 3.16 µM [inhibitor, partial curve, poor fit].
For COc1ccc(N2CC(NC(=O)C(c3ccccc3)c3ccccc3)CC2=O)cc1OC (stereo unspecified), the Potency was inconclusive: 3.98 µM [inhibitor, single point].
CC(C)Oc1ccc(-c2nc3c(C#N)c[nH]n3c2NC2CCCCC2)cc1 was tested, and the Potency was inconclusive: 25.1 µM [inhibitor, partial curve, poor fit].
With Cc1ccccc1Nc1c([N+](=O)[O-])cncc1[N+](=O)[O-] the Potency was inconclusive: 89.1 µM [inhibitor, single point].
O=C(c1ccco1)N1CCC2(CC1)CN(c1cccc(-c3ccccc3)c1)C2 was tested, and the activity, negative = inhibition was inactive: 31.3% [at 12.7 µM].
In the case of O=C(OCc1nnc(-c2ccccc2)o1)c1ccc(CO)cc1, the “activity, negative = inhibition” value is reported as inactive: -3.13% [at 102 µM].
With C#CCSc1nc2sc3c(c2c(=O)n1C)CCC3 the Potency was active: 44.7 µM.
